According to PubChem BioAssay AID686979 (National Center for Advancing Translational Sciences (NCATS), 2013):
The whole screen tested about 420,000 compounds, of which about 50,000 (12%) were called active. The shares of active, inactive and inconclusive entries below differ from those in the screen. The call rests on the fitted dose curve; in most records, active means well fitted inhibition curve with a large enough effect; inconclusive means small, poorly fitted or top-dose-only effect; inactive means flat fitted curve, though single readings scatter. Potencies of inconclusive entries are left out as doubtful fits.

Assay: qHTS for Inhibitors of human tyrosyl-DNA phosphodiesterase 1 (TDP1): qHTS in cells in presence of CPT; further: nearly all actives have a fitted effect of over 55% in size
Conditions: chicken DT40 Tdp1-/-;hTDP1 cells + 20 nM CPT, ATP luminescence, 48 h; activity change, negative = growth inhibition: at 46.2 µM (top of the series) unless noted
Procedure, shortened: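 Cell growth measured by CellTiter-Glo luminescence after a minimum 48 h, 37 C compound exposure with 20 nM CPT in Tdp1-knockout DT40 cells stably expressing hTDP1, seeded 400/well; qHTS titration format.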
On the % scale 0 is the no-effect control and ±100 the full control effect; potency means the concentration at half of the fitted maximal effect; tags describe the fitted curve by direction and shape.

SMILES	Potency	activity change, negative = growth inhibition
CN1C(=O)C(CC(=O)NCC2CCCCC2)SC1=Nc1ccccc1 (stereo not given)	inconclusive [inhibitor, single point]	–
COc1cccc(NC(=O)c2ccc(C(=O)c3ccccc3)o2)c1	inconclusive [inhibitor, single point]	–
CCN(CC)C(=O)c1cccc(-c2csc(C(C)(O)c3ccncc3)n2)c1 (stereo not given)	active: 18.4 µM	–
COc1ccc(CNC(=O)COc2ccc(C(=O)c3ccc(F)cc3)cc2)cc1	active: 2.59 µM	–
CCOC(=O)C1=C(N)Oc2ccc3ccccc3c2C1c1cccc(O)c1 (stereo not given)	–	inactive: -23.4%
O=C(NCCN1C(=O)S/C(=C\c2ccc(OC(F)F)cc2)C1=O)C1=COCCO1	active: 8.2 µM	–
Cc1sc2ncnc(N/N=C/c3cccc(O)c3)c2c1C	–	inactive: 2.2%
O=C(c1n[nH]c(=O)c2ccccc12)N1CCN(c2ccccc2Cl)CC1	inconclusive [inhibitor, partial curve]	–
COc1ccccc1OCCn1c(SCC(N)=O)nc2ccccc21	–	inactive: -2.22%
COc1ccc(C2CC(c3ccc(Cl)c(Cl)c3)Nc3nc(N)nn32)cc1 (stereo not given)	inconclusive [inhibitor, single point]	–
COc1ccc(-n2c(SCC(=O)Nc3nnc(C)s3)nc3c([nH]c4ccccc43)c2=O)cc1	inconclusive [inhibitor, single point]	–
CCCCCCNC(=O)CNC(=S)N(Cc1cccs1)C1CCCCC1	inconclusive [inhibitor, single point]	–
COc1cc([C@@H]2c3cc4c(cc3C(O[C@@H]3O[C@@H]5COC(c6cccs6)O[C@H]5[C@H](O)[C@H]3O)C3COC(=O)[C@@H]32)OCO4)cc(OC)c1O (stereo not given in full)	active: 0.0116 µM	–
Cc1onc(-c2ccc(Br)cc2)c1C(=O)Nc1ccc(Br)cc1F	inconclusive [inhibitor, single point]	–
Cc1ccc(Sc2ccc(NC(=O)CCN3C(=O)NC4(CCCC4)C3=O)cc2)c(C)c1	inconclusive [inhibitor, single point]	–
Cc1ccc(S(=O)(=O)C2(S(=O)(=O)c3ccc(C)cc3)CCCC2)cc1	active: 7.31 µM	–
Cc1cc(C(=O)CSc2nc3ccccc3c(=O)[nH]2)c(C)n1CC1CCCO1 (stereo not given)	active: 13 µM	–
O=C(N/N=C/c1cccc(Br)c1)c1ccc(Cn2cc(Br)cn2)o1	–	inactive: 1.6%
Cc1ccc2nc(NCC(=O)NN)nc(-c3ccccc3)c2c1	inconclusive [inhibitor, partial curve, poor fit]	–
CC(OC(=O)CCc1nc2ccccc2c(=O)[nH]1)C(=O)Nc1ccc2c(c1)OCO2 (stereo not given)	–	inactive: -24.7%
CN(C)c1ccc(C2=Cc3ccccc3C2)cc1	inconclusive [inhibitor, partial curve, poor fit]	–
NS(=O)(=O)c1ccc(CNC(=O)c2ccncc2)cc1	–	inactive: 2.82%
CCN(CC)C(=O)COc1ccc(C=O)cc1OC	–	inactive: 21%
O=C(NCCN1CCOCC1)c1cc(-c2ccc(Cl)s2)nc2ccccc12	–	inactive: -10.2%
COc1cccc(CNc2ncc(-c3ccc(Br)cc3)n2C)c1	inconclusive [inhibitor, single point]	–

SMILES	Potency	activity change, negative = growth inhibition
CCn1c(SCC(=O)c2c(N)n(C3CC3)c(=O)[nH]c2=O)nnc1-c1ccoc1C	–	inactive: -1.7%
Cc1ccc(N(C)C(=O)n2cnc3ccccc32)cc1	–	inactive: 5.01%
COc1cccc2sc(N3CCN(C(=O)CS(=O)(=O)c4ccc(Cl)cc4)CC3)nc12	active: 16.4 µM	–
Cc1c(N2C(=O)c3cccc4cccc(c34)C2=O)cnn1C	–	inactive: -1.74%
CCOC(=O)c1cc(-c2ccccc2)sc1NC(=O)C(C)Sc1nnc(N)s1 (stereo not given)	inconclusive [inhibitor, single point]	–
COc1ccc(CN(C(=O)CSc2nnc(-c3ccccc3C)o2)c2ccc(F)cc2)cc1	inconclusive [inhibitor, single point]	–
CC(C)C1/C(=N/O)CC(c2ccccc2)NC1c1ccccc1 (stereo not given)	active: 16.4 µM	–
CCOC(=O)C(C)NC(=O)C(NC(=O)C1CCC(CC)CC1)C(C)C (stereo not given)	active: 14.6 µM	–
NC1=NC[C@@H](Cc2ccc(O)cc2)N1CCc1cc(C(F)(F)F)cc(C(F)(F)F)c1	inconclusive [inhibitor, single point]	–
Cc1csc(NC(=O)c2ccc(-c3ccc(Cl)cc3Cl)o2)n1	active: 9.2 µM	–
C=CCn1c(=O)c(C(=O)Nc2ccc(C)cc2)c(O)c2ccccc21	active: 18.4 µM	–
Cc1nn(C)c(C(=O)NNC(=S)Nc2ccc(Cl)cc2)c1[N+](=O)[O-]	–	inactive: 14.7%
CCCCCCCCCCCC1N=C(N)NC(CCCO)=C1C(=O)OC (stereo not given)	active: 5.8 µM	–
CCOC(=O)c1ccccc1Nc1cc(C)nc2nc(-c3ccco3)nn12	inconclusive [inhibitor, single point]	–
COc1ccc(OC)c(NC(=O)CN(C)CC(=O)Nc2ccccc2Br)c1	–	inactive: -5.31%
COc1ccc(N(C(=O)Cc2cccs2)C(C(=O)NC2CCCCC2)c2cccn2C)cc1OC (stereo not given)	–	inactive: -1%
CC(=O)C12OC(C)(C)OC1CC1C3CCC4=CC(=O)C=CC4(C)C3(F)C(O)CC12C (stereo not given)	–	inactive: -7.45%
COn1c(SCc2ccccc2)nc2ccccc2c1=O	inconclusive [inhibitor, single point]	–
COc1cc2ccccc2cc1C(=O)N1CCOCC1	–	inactive: -0.501%
CC1=C(C(=O)Nc2cc(C)ccc2C)C2(CCCCCC2)OC1=O	inconclusive [inhibitor, partial curve]	–
COc1cccc(N2CCN(c3c(C#N)c(C(F)(F)F)nn3C)CC2)c1	active: 23.1 µM	–
Cc1cc(C)c(S(=O)(=O)N2CCN(Cc3nc4ccc(C)cc4o3)CC2)c(C)c1	inconclusive [inhibitor, single point]	–
COc1ccc(S(=O)(=O)Oc2ccc3c(c2)O/C(=C\c2cccnc2)C3=O)cc1	inconclusive [inhibitor, partial curve, poor fit]	–
C/C=C/COC(=O)c1[nH]c2c(c1C)C(=O)CC(c1ccc(N(C)C)cc1)C2 (stereo not given)	active: 25.9 µM	–
CC1(C)C/C(=N\NC(=S)Nc2ccccc2F)c2cc(O)ccc2O1	inconclusive [inhibitor, full curve]	–

SMILES	Potency	activity change, negative = growth inhibition
CCOc1ccc(NC(=O)Cn2cc(C(=O)c3ccc(C)cc3)c(=O)c3cc4c(cc32)OCCO4)cc1	–	inactive: -10.7%
CCn1c(SCC(=O)N=Nc2c(O)[nH]c3ccccc23)nc2ccccc21	active: 16.4 µM	–
Cc1ccc2nc(CS)[nH]c2c1	inconclusive [inhibitor, single point]	–
COc1ccc(CN2CCN(S(=O)(=O)c3ccc(NC(C)=O)cc3)CC2)cc1OC	inconclusive [inhibitor, full curve]	–
CCOC(=O)C1(Cc2cccc(F)c2)CCN(Cc2cnn(CC)c2)CC1	–	inactive: -23.6%
Cc1ccccc1CC1(CO)CCCN(C(=O)c2ccc(F)cc2)C1 (stereo not given)	inconclusive [inhibitor, partial curve]	–
COc1ccc(CNc2ncc(-c3cccc([N+](=O)[O-])c3)n2C)c(OC)c1OC	inconclusive [inhibitor, single point]	–
O=C(N/N=C/c1cc(Br)ccc1O)c1ccccc1Cl	active: 0.651 µM	–
CSC1=C(C#N)C(c2ccc3c(c2)OCO3)C2=C(CCCC2=O)N1 (stereo not given)	–	inconclusive: -37.6% [inhibitor]
Nc1c(-c2nc(-c3ccccc3)cs2)c2ccccn2c1C(=O)c1ccc2c(c1)OCO2	active: 18.4 µM	–
O=C(NCCCN1CCN(c2ccccc2)CC1)c1nnc(Cc2ccc(F)cc2)o1	inconclusive [inhibitor, single point]	–
CCN1C(C(=O)c2ccccc2)=C(OC(=O)COc2ccccc2)c2ccccc2S1(=O)=O	inconclusive [inhibitor, single point]	–
C=CCNc1ncnc2c1ncn2[C@H]1CN(Cc2ccc(F)cc2)C[C@@H](CO)O1	inconclusive [inhibitor, single point]	–
Cc1cc(N)c2ccccc2n1	–	inactive: 18.2%
CC(=O)c1ccc(OCCOc2ccc([N+](=O)[O-])cc2)cc1	inconclusive [inhibitor, partial curve, poor fit]	–
Fc1ccc(COc2ccc(C(=S)N3CCCC3)cc2)cc1	–	inactive: -0.0632%
O=C(CCS(=O)(=O)c1ccccc1)Nc1cccc(-c2nc3ccccc3s2)c1	inconclusive [inhibitor, single point]	–
Cc1nn(CC(=O)NC(C)c2ccccc2)c(=O)c2ccccc12 (stereo not given)	–	inactive: -8.57%
CCOc1ccc(-c2nnc3sc(COc4ccccc4)nn23)cc1	inconclusive [inhibitor, single point]	–
COc1ccc(N2C(=O)C3C4c5ccccc5C(C=Nc5ccc(C)cc5C)(c5ccccc54)C3C2=O)cc1 (stereo not given)	inconclusive [inhibitor, single point]	–
Cc1ccc(N2CCN(S(=O)(=O)c3ccc4oc(=O)c5ncn(C)c5c4c3)CC2)c(C)c1	–	inactive: -10.4%
O=c1c2c([nH]n1-c1ccccc1)CCSC2	inconclusive [inhibitor, single point]	–
c1ccc2sc(N3CN(CCN4CCOCC4)CN(c4nc5ccccc5s4)C3)nc2c1	inconclusive [inhibitor, single point]	–
CC(=O)c1ccc(C(=O)N(Cc2cccnc2)c2nc3c(Cl)cccc3s2)cc1	active: 25.9 µM	–
CC(C)(CNC(=O)c1ccc(-c2cccc(C(F)(F)F)c2)o1)N1CCOCC1	inconclusive [inhibitor, single point]	–
